Values of other authors, collected in paper PMC11006913.
Positions count from the first letter of the chain named. The list shows a part of the results.

Columns and labels:
Conditions in all cases: PBM; conditions not shown; double strand, one strand shown; scale: upbm affinity estimate (log intensity, higher = more binding, comparable within an allelic series)
[1] = target: T1, HESX1 E149K (Homo sapiens) (UniProt Q9UBX0)
T1 sequence: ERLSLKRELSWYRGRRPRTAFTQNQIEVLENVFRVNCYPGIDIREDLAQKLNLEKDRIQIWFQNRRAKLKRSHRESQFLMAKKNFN

[2] = target: T2, HESX1 N125S (Homo sapiens) (UniProt Q9UBX0)
T2 sequence: T1 sequence with N31S, K55E

[3] = target: T3, HESX1 R160C (Homo sapiens) (UniProt Q9UBX0)
T3 sequence: T1 sequence with K55E, R66C

[4] = target: HOXD13 I297V (Homo sapiens) (UniProt P35453)
[5] = target: HOXD13 I322L (Homo sapiens) (UniProt P35453)
[6] = target: HOXD13 N298S (Homo sapiens) (UniProt P35453)
[7] = target: HOXD13 Q325K (Homo sapiens) (UniProt P35453)
[8] = target: HOXD13 Q325R (Homo sapiens) (UniProt P35453)
[9] = target: HOXD13 R306W (Homo sapiens) (UniProt P35453)
[10] = target: HOXD13 S316C (Homo sapiens) (UniProt P35453)
[11] = target: NKX2-5 K183E (Homo sapiens) (UniProt P52952)
[12] = target: NKX2-5 R161P (Homo sapiens) (UniProt P52952)
[13] = target: NKX2-5 R190C (Homo sapiens) (UniProt P52952)
PBX4 (Homo sapiens) = target: T4, PBX4 (Homo sapiens) (UniProt Q9BYU1)
T4 sequence: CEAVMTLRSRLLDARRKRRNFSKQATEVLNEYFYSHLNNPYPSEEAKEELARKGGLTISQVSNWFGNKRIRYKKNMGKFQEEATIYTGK

[14] = target: T5, PBX4 R215Q (Homo sapiens) (UniProt Q9BYU1)
T5 sequence: T4 sequence with R19Q

[15] = target: PROP1 R112Q (Homo sapiens) (UniProt O75360)
[16] = target: PROP1 R99Q (Homo sapiens) (UniProt O75360)
ISX (Homo sapiens) = ISX (Homo sapiens) (UniProt Q2M1V0)
ISX R83Q (Homo sapiens) = ISX R83Q (Homo sapiens) (UniProt Q2M1V0)
[17] = target: PITX2 L100Q (Homo sapiens) (UniProt Q99697)
[18] = target: PITX2 R108H (Homo sapiens) (UniProt Q99697)
[19] = target: PITX2 R130W (Homo sapiens) (UniProt Q99697)
[20] = target: PITX2 T114P (Homo sapiens) (UniProt Q99697)

CCAGCGGG [8-mer CCAGCGGG]
binding signal [1]: 9.9 | binding signal [2]: 7.15 | binding signal [3]: 9.9

AGCACCCC [8-mer AGCACCCC]
binding signal [1]: 9.96 | binding signal [2]: 7.74 | binding signal [3]: 10.2

AGGGGGCA [8-mer AGGGGGCA]
binding signal [1]: 9.92 | binding signal [2]: 7.76 | binding signal [3]: 10.1 | binding signal [4]: 9.63 | binding signal [5]: 9.35 | binding signal [6]: 9.59 | binding signal [7]: 9.55 | binding signal [8]: 9.47 | binding signal [9]: 9.41 | binding signal [10]: 9.46

CCCCCCGG [8-mer CCCCCCGG]
binding signal [1]: 9.4 | binding signal [2]: 7.33 | binding signal [3]: 9.79 | binding signal [4]: 8.74 | binding signal [5]: 8.74 | binding signal [6]: 8.72 | binding signal [7]: 9.25 | binding signal [8]: 9.13 | binding signal [9]: 8.87 | binding signal [10]: 8.76 | binding signal [11]: 9.47 | binding signal [12]: 9.46 | binding signal [13]: 9.61 | binding signal (PBX4 (Homo sapiens)): 9.21 | binding signal [14]: 9.56 | binding signal [15]: 10.5 | binding signal [16]: 10.6

AATTATAA [8-mer AATTATAA]
binding signal [1]: 11.3 | binding signal [2]: 11.4 | binding signal [3]: 10.2 | binding signal (ISX (Homo sapiens)): 14.6 | binding signal (ISX R83Q (Homo sapiens)): 13.2

AGGGTAGC [8-mer AGGGTAGC]
binding signal [1]: 10.1 | binding signal [2]: 7.83 | binding signal [3]: 10.2

CGCCGGCG [8-mer CGCCGGCG]
binding signal [1]: 10 | binding signal [2]: 7.73 | binding signal [3]: 9.99

GGGCCAAC [8-mer GGGCCAAC]
binding signal [1]: 9.94 | binding signal [2]: 7.95 | binding signal [3]: 9.97 | binding signal [4]: 9.53 | binding signal [5]: 9.49 | binding signal [6]: 9.44 | binding signal [7]: 9.46 | binding signal [8]: 9.48 | binding signal [9]: 9.48 | binding signal [10]: 9.49

CCCCGAAC [8-mer CCCCGAAC]
binding signal [1]: 9.99 | binding signal [2]: 8.02 | binding signal [3]: 10.1

GATTAGGA [8-mer GATTAGGA]
binding signal [2]: 9.13

CATTAAGA [8-mer CATTAAGA]
binding signal [2]: 9.37

CGGCCCAG [8-mer CGGCCCAG]
binding signal [1]: 9.78 | binding signal [2]: 7.46 | binding signal [3]: 9.83 | binding signal [11]: 9.95 | binding signal [12]: 9.85 | binding signal [13]: 9.97

TAATTGTA [8-mer TAATTGTA]
binding signal [1]: 11.3 | binding signal [2]: 11.4 | binding signal [3]: 10.5 | binding signal (ISX (Homo sapiens)): 14.6 | binding signal (ISX R83Q (Homo sapiens)): 13.1 | binding signal [15]: 12.6 | binding signal [16]: 12.1

AATTACCT [8-mer AATTACCT]
binding signal [1]: 11.3 | binding signal [15]: 12.7 | binding signal [16]: 12.1

ACAATTAC [8-mer ACAATTAC]
binding signal [1]: 11.4 | binding signal [15]: 12.6

AGCCTCCG [8-mer AGCCTCCG]
binding signal [1]: 9.81 | binding signal [2]: 7.55 | binding signal [3]: 9.94 | binding signal [11]: 10.1 | binding signal [12]: 10.1 | binding signal [13]: 10

ACCCCCAG [8-mer ACCCCCAG]
binding signal [1]: 9.9 | binding signal [2]: 7.71 | binding signal [3]: 10 | binding signal [11]: 10 | binding signal [12]: 10.2 | binding signal [13]: 10

AATAATAC [8-mer AATAATAC]
binding signal [2]: 9.22

ACGATTAA [8-mer ACGATTAA]
binding signal [2]: 9.29

AGCCCTCC [8-mer AGCCCTCC]
binding signal [1]: 9.79 | binding signal [2]: 7.57 | binding signal [3]: 10.1 | binding signal [15]: 10.9 | binding signal [16]: 11

ACTACATA [8-mer ACTACATA]
binding signal [2]: 9

GAGGGAGC [8-mer GAGGGAGC]
binding signal [1]: 9.92 | binding signal [2]: 7.36 | binding signal [3]: 10 | binding signal [17]: 8.03 | binding signal [18]: 8.01 | binding signal [19]: 7.91 | binding signal [20]: 8.09

AGTGCGAC [8-mer AGTGCGAC]
binding signal [1]: 10 | binding signal [2]: 7.93 | binding signal [3]: 10.2 | binding signal (PBX4 (Homo sapiens)): 9.93 | binding signal [14]: 9.78

CTGCCTCC [8-mer CTGCCTCC]
binding signal [1]: 9.89 | binding signal [2]: 7.75 | binding signal [3]: 10 | binding signal [11]: 9.97 | binding signal [12]: 10 | binding signal [13]: 9.99

CGCCCGTC [8-mer CGCCCGTC]
binding signal [1]: 9.95 | binding signal [2]: 7.85 | binding signal [3]: 10.1 | binding signal [17]: 8.28 | binding signal [18]: 8.2 | binding signal [19]: 7.93 | binding signal [20]: 8.12

CAGGCCGG [8-mer CAGGCCGG]
binding signal [1]: 9.71 | binding signal [2]: 7.59 | binding signal [3]: 9.85 | binding signal [17]: 8.32 | binding signal [18]: 7.97 | binding signal [19]: 7.85 | binding signal [20]: 8.04 | binding signal [15]: 10.7 | binding signal [16]: 10.7

AACCCCCG [8-mer AACCCCCG]
binding signal [1]: 9.79 | binding signal [2]: 7.39 | binding signal [3]: 10 | binding signal (ISX (Homo sapiens)): 9.66 | binding signal (ISX R83Q (Homo sapiens)): 9.69

AGAATTAT [8-mer AGAATTAT]
binding signal [2]: 9.27

AATGAAAT [8-mer AATGAAAT]
binding signal [2]: 9.12

ACGGAGCC [8-mer ACGGAGCC]
binding signal [1]: 9.86 | binding signal [2]: 7.6 | binding signal [3]: 9.99 | binding signal (ISX (Homo sapiens)): 9.76 | binding signal (ISX R83Q (Homo sapiens)): 9.82

ACCCGAGC [8-mer ACCCGAGC]
binding signal [1]: 10 | binding signal [2]: 7.8 | binding signal [3]: 10 | binding signal [15]: 11 | binding signal [16]: 10.9

AATTGAGA [8-mer AATTGAGA]
binding signal [2]: 9.58

ACCTCCCA [8-mer ACCTCCCA]
binding signal [1]: 9.92 | binding signal [2]: 7.71 | binding signal [3]: 10.1 | binding signal [17]: 8.33 | binding signal [18]: 8.23 | binding signal [19]: 8.14 | binding signal [20]: 8.23

ACGGCGCT [8-mer ACGGCGCT]
binding signal [1]: 9.95 | binding signal [2]: 7.59 | binding signal [3]: 10 | binding signal [15]: 10.8 | binding signal [16]: 10.8

CAATTGAC [8-mer CAATTGAC]
binding signal [1]: 10.7 | binding signal [2]: 9.57 | binding signal [3]: 10.3 | binding signal [15]: 12.4

AATATTTA [8-mer AATATTTA]
binding signal [2]: 9.25

ATACATTA [8-mer ATACATTA]
binding signal [2]: 9.1

CCACTTAG [8-mer CCACTTAG]
binding signal [1]: 10.8 | binding signal [2]: 9.66 | binding signal [3]: 10.3 | binding signal [11]: 12.3 | binding signal [12]: 13.3 | binding signal [13]: 10.8

CGCCTCCC [8-mer CGCCTCCC]
binding signal [1]: 9.83 | binding signal [2]: 7.53 | binding signal [3]: 9.86 | binding signal [15]: 10.7 | binding signal [16]: 10.9

AGCCCGGA [8-mer AGCCCGGA]
binding signal [1]: 9.85 | binding signal [2]: 7.59 | binding signal [3]: 10 | binding signal [11]: 10 | binding signal [12]: 10.2 | binding signal [13]: 10.1

AATTACCA [8-mer AATTACCA]
binding signal [1]: 11.4 | binding signal [15]: 12.7 | binding signal [16]: 12.2

ATTTATAA [8-mer ATTTATAA]
binding signal [2]: 9.3

ATTAGCAA [8-mer ATTAGCAA]
binding signal [2]: 9.81 | binding signal [3]: 10.3

GCAATTAC [8-mer GCAATTAC]
binding signal [1]: 11.3 | binding signal [2]: 11.3 | binding signal [3]: 10.4 | binding signal [16]: 12.1

AATTATCC [8-mer AATTATCC]
binding signal [1]: 11.3 | binding signal [17]: 10 | binding signal [18]: 8.85 | binding signal [19]: 8.66

GCTTCGAC [8-mer GCTTCGAC]
binding signal [1]: 9.91 | binding signal [2]: 7.72 | binding signal [3]: 10.1 | binding signal [15]: 10.9 | binding signal [16]: 11
